According to publication PMC12136788:
Some of the results follow.

B1: chr2:48026839:48026840:+_ENSG00000116062_ENST00000540021|hu_hu|hu_hu_hu_mus_False|58_108 (ssRNA)
RNA: GGGAGUUCUACAGUCCGACGAUCAUAGUGUGCCACUAGCGUCCUAAAUCUGGAACAGUGGCGGUCAUCCGAAAACUGACCUAUGAAAAACUUGCCCAGUGAAGUGUCCACAAAGCAAACACCAUACACACGAGUGUGACCAGACAACAGAGGAUUGAGCAUCA
B2: 114308989_114309865_2673_3pUTR_ENSMUSG00000021143_ENSMUST00000084891|mouse|control|control (ssRNA)
RNA: GGGAGUUCUACAGUCCGACGAUCAGAAGGUGGCUUUGGAGUGUCCAAAGAUGCAGAUGGGGAAGUGCUUCACGUGAGAAGACCACUGGGCAGCCAGCUGGAAGAACUUGACAUCGCUGCAUUCCACGCCGUCGAUGAGGACCCCAACAGAGGAUUGAGCAUCA
B3: chr11:95532463:95532464:+_ENSG00000166037_ENST00000540830|hu_mus|FALSE|FALSE (ssRNA)
RNA: GGGAGUUCUACAGUCCGACGAUCCUUAUUUGGGGAGCGUCUCAGAUCACUGUUAAGGAAAGGCUUAUCAGGUGGAUACAAUACAUAUGGAGACGAAGAAUGACGAACCAUAUUUCCAUUAGACCUUGAUGGUUCAGCUAGGACCAACAGAGGAUUGAGCAUCA
B4: chr20:32246340:32246341:-_ENSG00000125967_ENST00000246190|hu_mus|FALSE|FALSE (ssRNA)
RNA: GGGAGUUCUACAGUCCGACGAUCUCUCCAGGAGGCUUCAUCCUGCCAGAACUCAUACAGGGUGAAAGCAGCAUUGUCUAGCAUCUUCUGGGCAGACACAUGCAGACAAUGGCUUUGGGCCCCUGUGAAGUUCAUGUAGCAGCACAACAGAGGAUUGAGCAUCA
B5: chrX:70775091:70775092:+_ENSG00000147162_ENST00000373719|hu_mus|FALSE|FALSE (ssRNA)
RNA: GGGAGUUCUACAGUCCGACGAUCAUCGGGGAAAUGGGGUUGCAGUUCGAUAGCUCUCCUGUAGGUAUCAAUGGCCAGGUCUAUUAGGCCUUGCUCGUAGUACACACAAGCCAGGUUGCCGUGCACCACCGCAUGAUUUGGGCUCAACAGAGGAUUGAGCAUCA
B6: 116096438_116096558_1552_3pUTR_ENSMUSG00000029518_ENSMUST00000031492|mouse|control|control (ssRNA)
RNA: GGGAGUUCUACAGUCCGACGAUCAGGAAAUAAUCGUGAGGAACUUAGUUCAUUUGAUUUGGCUUCAUUGGCUGUAUUUGUUAAAAUGCUCCUCCUUGCGAGCUCCGUCUCUUUACAGAUGUCCCACUACCUUUCUGCGGGAACCAACAGAGGAUUGAGCAUCA

target: T1, UNK ZnF1-3 (human, UniProt Q9C0B0 31-174); test: nsRBNS (natural sequence RNA bind-n-seq); RBNS binding buffer (assumed for nsRBNS): 25 mM Tris pH 7.5, 150 mM KCl, 3 mM MgCl2, 0.01% Triton X-100, 500 ug/ml BSA, 20 U/ml SUPERase-In, 4 C; UNK is unkempt and MSI1 is Musashi-1; names of the RNAs are library labels; protein concentration not given here; high values mean tight binding
T1 sequence: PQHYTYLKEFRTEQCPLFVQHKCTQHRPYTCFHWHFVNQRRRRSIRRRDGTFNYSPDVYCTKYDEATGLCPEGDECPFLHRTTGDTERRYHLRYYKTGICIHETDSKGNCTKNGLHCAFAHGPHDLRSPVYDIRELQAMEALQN

Binder	binding signal
B1	0.971 enrichment R
B2	1.46 enrichment R
B3	1.93 enrichment R
B4	0.442 enrichment R
B5	0.409 enrichment R
B6	0.542 enrichment R
